# Data: PubChem BioAssay AID485281 (National Center for Advancing Translational Sciences (NCATS), 2010)
# Hit rate of the full screen: of about 350,000 compounds, about 260 (0.074%) were called active. Inconclusive results, whose numbers are uncertain, are shown with a selection of clear calls. Calls follow the shape of the dose curve; as a rule, active = well fitted inhibition curve with a large enough effect; inconclusive = small, poorly fitted or top-dose-only effect; inactive = no such curve, though single readings can be large or run the other way. A potency beside an inconclusive call is a rough fit, not a confirmed value.
# Molecular target: Ferritin light chain (Equus caballus) (UniProt P02791)
# Test: qHTS Assay for Identification of Novel General Anesthetics; also: nearly all actives have a fitted effect of over 20% in size
# Details: apoferritin/1-aminoanthracene competitive binding, fluorescence; series mostly up to 77.5 µM
# Procedure, shortened: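 Horse-spleen apoferritin (10 uM) was mixed with 50% saturated 1-aminoanthracene in PBS, exposed to compounds for 10 min at room temperature, and read for fluorescence (ex 380 nm, em 535 nm). Competitive displacement was fitted with a four-parameter Hill equation.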
# Potency is read from the fitted curve at half-maximal effect; tags tell the direction and shape of the fitted curve.
# UniProt P02791, sequence (P02791 whole entry, looked up): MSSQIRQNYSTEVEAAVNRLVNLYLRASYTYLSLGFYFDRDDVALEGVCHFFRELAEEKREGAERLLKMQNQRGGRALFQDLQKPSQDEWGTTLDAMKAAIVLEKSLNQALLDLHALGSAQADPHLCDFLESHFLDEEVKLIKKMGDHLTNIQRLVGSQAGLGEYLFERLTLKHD
row,Structure (SMILES),Potency
1,Cc1c(N=Cc2c(O)n(Cc3ccccc3)c(=O)[nH]c2=O)c(=O)n(-c2ccccc2)n1C,inactive
2,COc1ccccc1N1CCN(Cc2cnc(-c3ccccc3)[nH]2)CC1,inactive
3,C=C1CC[C@H](O)C/C1=C/C=C1\CCC[C@]2(C)[C@@H]([C@H](C)CCCC(C)C)CC[C@@H]12,"inconclusive: 22.4 µM [inhibitor, partial curve]"
4,O=C1NC(=O)C2(Cc3ccccc3N3CCCC32)C(=O)N1c1ccc(Cl)cc1 (centres undefined),"inconclusive: 31.6 µM [inhibitor, partial curve]"
5,CC(=O)N1CCC2(CC1)CC(=O)c1cc(OCC(=O)N3CCC4(CC3)OCCO4)ccc1O2,inactive
6,C=CCN1C(=O)NC(=O)/C(=C/c2ccc(N(C)C)c(Br)c2)C1=O,"inconclusive: 35.5 µM [inhibitor, single point]"
7,CC(C)Oc1ccc(C(=O)Nc2ccc3c(c2)CCCN3C(=O)c2cccs2)cc1,"inconclusive: 28.2 µM [inhibitor, partial curve, poor fit]"
8,Nc1ccccc1C(=O)OCC(=O)c1ccc2c(c1)OCCO2,"inconclusive: 7.94 µM [inhibitor, full curve]"
9,CCCCCCCSc1cc(OC)c(CCN(C)C)cc1OC,"inconclusive: 12.6 µM [inhibitor, partial curve]"
10,Cc1cc(N2CCCCC2)ccc1C=C1C(=O)N(C)C(=S)N(C)C1=O,"inconclusive: 31.6 µM [inhibitor, single point]"
11,COc1ccccc1CN1CCN(C(=O)COc2ccccc2)CC1,inactive
12,CN1CCN(c2ccc([N+](=O)[O-])c3cccnc23)CC1,"inconclusive: 31.6 µM [inhibitor, single point]"
13,O=C(Cc1ccccc1)NC(Oc1ccccc1Cl)C(Cl)(Cl)Cl (centres undefined),"inconclusive: 35.5 µM [inhibitor, partial curve]"
14,O=C(COC(=O)Cc1ccccc1)NC12CC3CC(CC(C3)C1)C2,"inconclusive: 7.94 µM [inhibitor, partial curve]"
15,O=C(NC1CCCCC1)c1cn(CCN2CCOCC2)c2cc(Cl)ccc2c1=O,inactive
16,CCCCn1c(=O)c(C(=O)Nc2ncccc2C)c(O)c2ccccc21,"inconclusive: 20 µM [inhibitor, partial curve]"
17,O=C(N/N=C/c1cccnc1)c1ccc(NC(=O)C(c2ccccc2)c2ccccc2)cc1,"inconclusive: 15.8 µM [inhibitor, partial curve]"
18,N#CC(C#N)=Cc1ccc(C=C(C#N)C#N)cc1,inactive
19,CCOC(=O)C(C)Oc1cc(C)cc2oc(=O)c3c(c12)CCCC3 (centres undefined),"inconclusive: 3.98 µM [inhibitor, full curve]"
20,CCCC[C@@H](C)[C@@H](OC(=O)C[C@@H](CC(=O)O)C(=O)O)[C@H](C[C@@H](C)C[C@H](O)CCCC[C@@H](O)C[C@H](O)[C@H](C)N)OC(=O)C[C@H](CC(=O)O)C(=O)O,inactive
21,CSc1ncc(CN2CCCC(C(=O)c3sccc3C)C2)cn1 (centres undefined),inactive
22,CCC1C(=O)OCC1Cc1cncn1C (centres undefined),inactive

row,Structure (SMILES),Potency
1,COc1cccc(NP(=O)(Oc2ccccc2)Oc2ccccc2)c1,inactive
2,Cc1ccnc(NS(=O)(=O)c2ccc(N=Cc3c(O)n(C)c(=O)n(C)c3=O)cc2)n1,inactive
3,O=C1NC(=S)N(c2ccc(F)cc2)C(=O)/C1=C/c1ccco1,"inconclusive: 39.8 µM [inhibitor, single point]"
4,Cn1c(=O)c2c(nc(N/N=C/c3c(O)n(C4CCCCC4)c(=S)[nH]c3=O)n2C)n(C)c1=O,inactive
5,CC(=NCCN1CCCCC1)c1c(O)n(-c2ccccc2)c(=O)[nH]c1=O,inactive
6,O=c1[nH]c(=O)n(CCC2=CCCCC2)c(O)c1/C=N/Nc1ccccc1,"inconclusive: 35.5 µM [inhibitor, partial curve]"
7,O=C(Oc1ccc(Cl)c2ccccc12)N1CCCCC1,"inconclusive: 17.8 µM [inhibitor, partial curve]"
8,CCOc1ccc(S(=O)(=O)N(CC(=O)NCc2ccccc2OC)c2ccccc2)cc1,inactive
9,CN1C(=O)N(C)C(=O)C2(Cc3cc(NC(=O)c4ccc(F)cc4)ccc3N3CCCC32)C1=O (centres undefined),"inconclusive: 31.6 µM [inhibitor, single point]"
10,Oc1cc2c(cc1CN1CCN(c3ccccc3F)CC1)OCO2,inactive
11,CC(C)=CCCC1(C)C=Cc2c(O)c3c(c(CC=C(C)C)c2O1)OC12C(=CC4CC1C(C)(C)OC2(C/C=C(/C)C(=O)O)C4O)C3=O (centres undefined),"inconclusive: 17.8 µM [inhibitor, partial curve]"
12,COc1ccc(S(=O)(=O)NC(CC(=O)N2CCC3(CC2)OCCO3)c2ccco2)cc1 (centres undefined),inactive
13,CCCCn1c(=O)c(C(=O)NCc2ccncc2)c(O)c2ccccc21,"inconclusive: 35.5 µM [inhibitor, partial curve]"
14,Cc1ccc(-n2c(/C=C\c3ccc(F)c(F)c3)nc3ccccc3c2=O)c(C)c1,inactive
15,CC(C)Oc1ccc(NC(=O)c2cc3ccccc3o2)cc1,"inconclusive: 3.55 µM [inhibitor, full curve]"
16,O=C1NC(=S)NC(=O)C1=Cc1cccn1-c1ccc(O)cc1,"inconclusive: 44.7 µM [inhibitor, single point]"
17,CCOc1ccc(Nc2c(S(=O)(=O)c3ccc(C)cc3)cnc3ccc(F)cc23)cc1,"inconclusive: 17.8 µM [inhibitor, partial curve]"
18,CC1CCc2c(sc3nc(CSc4n[nH]c(N)n4)[nH]c(=O)c23)C1 (centres undefined),"inconclusive: 28.2 µM [inhibitor, single point]"
19,Cc1ccccc1-c1nn2c(=O)cc(CN3CCN(C(=O)COc4ccccc4Cl)CC3)nc2s1,"inconclusive: 6.31 µM [inhibitor, partial curve]"
20,CN(CCOc1ccc(C=C2C(=O)NC(=O)NC2=O)cc1)c1ccccn1,"inconclusive: 39.8 µM [inhibitor, single point]"
21,N#CC(C(=O)C12CC3CC(CC(C3)C1)C2)c1nc2ccccc2[nH]1 (centres undefined),"inconclusive: 28.2 µM [inhibitor, partial curve]"
22,CCCCn1c(O)c(/C=N/NC(=O)c2ccncc2)c(=O)[nH]c1=S,inactive
